Assay results as given in paper PMC5700166.
Only a part is listed here, and it is no random draw. The list includes weakly bound sequences.

Legend:
Experiment in all cases: protein-binding microarray (PBM)
Details in all cases: PBM: ~300 nM protein, 6 mM HEPES pH 7.8, 80 mM KCl, 0.5 mM EDTA, 0.5 mM EGTA, 6% glycerol, 35 ng/ul poly-dIdC, 1% milk, 1 h, room temperature; Ap Aiptasia and Nv Nematostella (sea anemones) / Co Capsaspora / Aq Amphimedon (sponge) / Dm Drosophila / Hu human; RHD is the Rel homology domain; high values mean tight binding; most listed sequences are background and not binding sites; double strand, one strand shown
GST-Ap-NF-kB RHD = target: T1, GST-Ap-NF-kB RHD (UniProt A0A913YAJ5)
T1 sequence: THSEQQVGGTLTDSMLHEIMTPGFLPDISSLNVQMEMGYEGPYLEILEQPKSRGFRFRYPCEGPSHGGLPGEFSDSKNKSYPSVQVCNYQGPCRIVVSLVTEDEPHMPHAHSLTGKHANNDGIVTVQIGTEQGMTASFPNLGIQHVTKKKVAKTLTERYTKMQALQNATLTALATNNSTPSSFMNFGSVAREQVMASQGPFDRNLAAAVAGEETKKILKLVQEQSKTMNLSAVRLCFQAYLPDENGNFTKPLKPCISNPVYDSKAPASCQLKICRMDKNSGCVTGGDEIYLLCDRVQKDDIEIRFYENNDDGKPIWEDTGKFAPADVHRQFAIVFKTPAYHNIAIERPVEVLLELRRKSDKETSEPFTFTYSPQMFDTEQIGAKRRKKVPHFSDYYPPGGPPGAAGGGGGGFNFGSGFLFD

[1] = target: T2, GST-Nv-NF-kB (Cys allele) (UniProt E5G601)
T2 sequence: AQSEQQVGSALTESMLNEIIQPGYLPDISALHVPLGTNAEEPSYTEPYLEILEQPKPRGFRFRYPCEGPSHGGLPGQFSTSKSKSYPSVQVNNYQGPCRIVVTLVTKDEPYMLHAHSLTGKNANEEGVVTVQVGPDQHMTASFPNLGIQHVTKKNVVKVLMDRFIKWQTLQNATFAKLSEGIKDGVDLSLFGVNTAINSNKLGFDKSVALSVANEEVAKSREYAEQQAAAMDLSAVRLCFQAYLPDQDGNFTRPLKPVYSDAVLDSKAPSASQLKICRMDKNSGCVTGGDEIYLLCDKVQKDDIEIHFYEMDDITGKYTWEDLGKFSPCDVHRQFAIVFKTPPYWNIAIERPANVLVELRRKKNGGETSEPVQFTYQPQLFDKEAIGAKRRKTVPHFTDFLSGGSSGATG

GST-Co-NF-kB = target: T3, GST-Co-NF-kB (UniProt F1ARL5)
T3 sequence: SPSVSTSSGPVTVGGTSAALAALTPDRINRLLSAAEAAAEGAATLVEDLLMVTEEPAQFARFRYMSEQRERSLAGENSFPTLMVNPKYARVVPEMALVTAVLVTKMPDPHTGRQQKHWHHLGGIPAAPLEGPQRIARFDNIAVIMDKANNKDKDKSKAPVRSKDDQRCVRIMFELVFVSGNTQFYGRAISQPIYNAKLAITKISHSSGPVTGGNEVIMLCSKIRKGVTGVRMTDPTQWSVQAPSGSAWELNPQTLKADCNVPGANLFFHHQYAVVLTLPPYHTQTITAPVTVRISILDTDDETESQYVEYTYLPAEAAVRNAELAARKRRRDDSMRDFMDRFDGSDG

GST-Dm-Relish = target: T4, GST-Dm-Relish (UniProt Q94527)
T4 sequence: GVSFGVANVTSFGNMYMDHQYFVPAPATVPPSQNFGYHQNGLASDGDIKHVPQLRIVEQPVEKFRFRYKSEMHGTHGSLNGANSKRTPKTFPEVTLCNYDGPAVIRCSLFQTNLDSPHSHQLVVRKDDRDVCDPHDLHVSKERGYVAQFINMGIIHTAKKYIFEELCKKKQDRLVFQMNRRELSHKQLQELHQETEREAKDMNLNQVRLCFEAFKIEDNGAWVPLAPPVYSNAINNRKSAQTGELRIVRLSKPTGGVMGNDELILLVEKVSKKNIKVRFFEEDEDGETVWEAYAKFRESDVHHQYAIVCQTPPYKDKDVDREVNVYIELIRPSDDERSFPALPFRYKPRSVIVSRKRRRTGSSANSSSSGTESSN

GST-Aq-NF-kB = target: T5, GST-Aq-NF-kB (UniProt A9Y5G7)
T5 sequence: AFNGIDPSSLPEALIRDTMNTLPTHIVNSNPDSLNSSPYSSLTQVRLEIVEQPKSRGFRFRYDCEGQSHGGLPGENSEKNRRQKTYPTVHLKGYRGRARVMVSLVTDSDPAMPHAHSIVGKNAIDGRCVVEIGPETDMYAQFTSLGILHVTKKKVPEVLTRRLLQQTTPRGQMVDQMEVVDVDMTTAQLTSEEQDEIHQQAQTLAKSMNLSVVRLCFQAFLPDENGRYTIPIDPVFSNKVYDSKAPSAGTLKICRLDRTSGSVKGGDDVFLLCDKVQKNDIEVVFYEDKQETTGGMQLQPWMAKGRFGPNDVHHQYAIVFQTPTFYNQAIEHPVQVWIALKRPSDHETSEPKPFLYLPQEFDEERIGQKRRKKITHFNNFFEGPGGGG

Sequence	binding signal (GST-Ap-NF-kB RHD) [z-score]	binding signal [1] [z-score]	binding signal (GST-Co-NF-kB) [z-score]	binding signal (GST-Dm-Relish) [z-score]	binding signal (GST-Aq-NF-kB) [z-score]
CCGATTAACATCAAGGAAATGCCTGATGTTAATCGGGTCTTGATTCGCTTGACGCTGCTG	-0.31	-0.52	0.182	-0.483	0.947
CCGATTAACATCAATCCTACAGGTGATGTTAATCGGGTCTTGATTCGCTTGACGCTGCTG	-0.249	-0.269	-0.247	0.288	-0.126
CCGATTAACATCAATGCGGTGCGTGATGTTAATCGGGTCTTGATTCGCTTGACGCTGCTG	0.15	-0.237	-0.699	-0.237	-0.089
CCGATTAACATCATGTTTAGTTTTGATGTTAATCGGGTCTTGATTCGCTTGACGCTGCTG	-0.115	0.241	0.126	-0.0142	-0.393
CCGATTAACATCATGCCTGAGGCTGATGTTAATCGGGTCTTGATTCGCTTGACGCTGCTG	-0.486	-0.497	-1.24	-1	-0.787
CCGATTAACATCAATGAAATTCCTGATGTTAATCGGGTCTTGATTCGCTTGACGCTGCTG	-0.17	-0.0126	0.229	0.61	0.411
CCGATTAACATCAAGTATGTGAATGATGTTAATCGGGTCTTGATTCGCTTGACGCTGCTG	-0.387	0.137	0.0751	0.594	-0.247
CCGATTAACATCATGCGATTATTTGATGTTAATCGGGTCTTGATTCGCTTGACGCTGCTG	-0.279	0.0904	-0.301	-0.036	-0.259
CCGATTAACATCATCATAGTCTTTGATGTTAATCGGGTCTTGATTCGCTTGACGCTGCTG	-0.817	0.0931	0.0743	-0.573	-0.428
CCGATTAACATCATCGGAATACGTGATGTTAATCGGGTCTTGATTCGCTTGACGCTGCTG	0.0423	-0.485	-0.0904	0.463	-0.153
CCGATTAACATCACTGGAATTTCTGATGTTAATCGGGTCTTGATTCGCTTGACGCTGCTG	0.353	-0.329	0.367	0.851	0.936
CCGATTAACATCAAGGCCTAGGGTGATGTTAATCGGGTCTTGATTCGCTTGACGCTGCTG	0.284	-0.218	-0.167	0.257	0.274
CCGATTAACATCACAGATTTTCCTGATGTTAATCGGGTCTTGATTCGCTTGACGCTGCTG	-0.206	-0.0122	0.556	0.117	0.434
CCGATTAACATCAAGCTTTCATCTGATGTTAATCGGGTCTTGATTCGCTTGACGCTGCTG	-0.135	0.0752	-1.39	-0.226	-0.577
CCGATTAACATCAAGGCAGGCATTGATGTTAATCGGGTCTTGATTCGCTTGACGCTGCTG	-0.165	-0.159	-0.387	-0.631	-0.46
CCGATTAACATCAAGCCTATTTGTGATGTTAATCGGGTCTTGATTCGCTTGACGCTGCTG	-0.536	-0.816	0.167	0.0147	-0.367
CCGATTAACATCAACTCTAAGACTGATGTTAATCGGGTCTTGATTCGCTTGACGCTGCTG	-0.603	-0.207	-0.47	-0.712	-0.762
CCGATTAACATCAGTTTCTATTCTGATGTTAATCGGGTCTTGATTCGCTTGACGCTGCTG	-0.423	0.402	-0.365	-0.394	-0.318
CCGATTAACATCAACCGAACTTTTGATGTTAATCGGGTCTTGATTCGCTTGACGCTGCTG	-0.739	0.343	0.396	-0.0344	-0.403
CCGATTAACATCACTGTTCACTCTGATGTTAATCGGGTCTTGATTCGCTTGACGCTGCTG	-0.138	-0.326	-0.324	-0.185	-0.477
CCGATTAACATCAGGAAGATTCCTGATGTTAATCGGGTCTTGATTCGCTTGACGCTGCTG	-0.371	-0.146	-1.33	0.0334	0.695
CCGATTAACATCAACACGGTGAGTGATGTTAATCGGGTCTTGATTCGCTTGACGCTGCTG	-0.369	-0.181	-0.496	-0.151	-0.447
CCGATTAACATCAACCACGCATTTGATGTTAATCGGGTCTTGATTCGCTTGACGCTGCTG	-0.222	0.455	0.152	-0.165	-0.469
CCGATTAACATCAGGAGAGTCCATGATGTTAATCGGGTCTTGATTCGCTTGACGCTGCTG	-0.228	-0.317	-0.166	-0.555	0.863
CCGATTAACATCAAATTTTCCGTTGATGTTAATCGGGTCTTGATTCGCTTGACGCTGCTG	-0.342	-0.323	0.393	0.673	0.992
CCGATTAACATCACTTGTCGCTTTGATGTTAATCGGGTCTTGATTCGCTTGACGCTGCTG	-0.364	-0.403	0.159	-0.0456	-0.307
CCGATTAACATCAAATCGTCCTTTGATGTTAATCGGGTCTTGATTCGCTTGACGCTGCTG	-0.465	-0.349	-0.771	-0.848	-0.324
CCGATTAACATCATTTTACCTTGTGATGTTAATCGGGTCTTGATTCGCTTGACGCTGCTG	0.431	0.932	0.859	0.549	0.232
